The list shows a part of the results. At the low end of the ranking the order means little.
biological target: SIX1-Q177R homeodomain (UniProt Q15475); assay: universal protein binding microarray; details: Universal all-10-mer PBM (8x60K, AMADID 030236), 300 nM GST-tagged protein, Alexa Fluor 488 anti-GST; buffer, salt, pH and temperature not stated; high values mean tight binding; most listed sequences are background and not binding sites; double strand, one strand shown

Sequence	binding signal [E-score]
AGCGAATC	-0.221
AGGTTCGG	-0.0213
ATCCCTGG	0.0686
TCTCTCAA	-0.0169
CTGCACTA	0.0446
CAGGCGAG	0.0213
ACCCTGCT	0.19
CCACTGTC	-0.195
CCAGGCTC	-0.0822
AGGCAAAA	-0.165
ACCACCAG	0.089
GCAAATCA	-0.152
ACGGCAGT	-0.0519
GACAAGTA	-0.0441
ACGGGGCG	0.118
ATTGTGAG	-0.129
GATCGGGC	0.0277
CAATAATG	-0.135
CCCTGATC	0.0981
CTGTGCCC	-0.0583
CAATTTAG	0.116
ATCCAATA	0.00085
CAGTCCCG	-0.0934
CGGGGAGA	0.0507
AAGAATTA	-0.148

Sequence	binding signal [E-score]
TAAGTGAA	-0.156
CCAATTTC	-0.176
AAAATACT	-0.0919
CCGGGGAA	0.18
TAGTGCGA	-0.187
ATCAGAGA	0.101
TCCGTCCA	-0.0497
CCCCAAGG	0.218
ACTCCGGC	0.233
AGCCAATA	-0.2
GACAGGTC	-0.188
CTTCTGAC	0.00458
TCAACACA	0.149
CAATTGTC	-0.0899
AAGCCTAG	-0.25
GACAGGGC	0.162
CGTGTCCC	0.398
AATCAATG	-0.212
CCGGTACG	-0.11
CGATCGCC	-0.148
AACACCGT	0.467
CTTATAAC	0.12
CCTCGTCA	0.073
AGAAAAAG	-0.161
AACCTTGA	-0.0036

Sequence	binding signal [E-score]
AAATAACC	-0.181
CCCATATA	0.0842
ACCTGTGC	0.0984
CGCTATCA	-0.0754
GACTCGGC	0.109
AGTGTTGG	0.356
CACGGCAC	0.141
ATAAGTTC	-0.198
ACATTGAC	-0.149
AGTGGCAT	-0.106
CCGGAAGG	-0.131
AAGTACTG	-0.105
CAGATGAC	-0.00044
TAGTGGCA	-0.062
CCAGCATC	0.0144
ACCCTCTA	0.136
ATACTCAG	0.0801
AAATCCAA	-0.0505
CCAGCCGA	-0.0228
CGACTAAG	-0.00719
GATTCCGA	0.00709
GTGCTAAC	0.0583
GATTGGTA	-0.0717
CAGCTAAC	0.128
AATCTAAA	-0.0359

Sequence	binding signal [E-score]
GAATAGGC	-0.154
CTCAGCCC	-0.217
CCGGGACG	0.0468
CCACTGAA	-0.127
AGCGGTCC	-0.0987
AGCGCTTC	-0.0325
ATAAACTG	-0.0483
GCAAGGTA	-0.0731
ACGCCATA	0.071
CATTATAA	-0.167
AACAGGAC	-0.0522
ATGTAAAT	0.0112
CGAAAGAC	-0.202
CCCGGTCG	0.212
TATAGATA	0.00683
CGTTTGAA	-0.204
CGATGAAA	-0.125
GCCTGAGA	-0.0776
CAACGAAA	-0.00838
AATGGGAG	-0.135
AATATCAC	0.0154
GAGCATCC	-0.179
AGAAACCT	-0.03
ATTACAAT	-0.0936
CTTTACCC	0.171

Sequence	binding signal [E-score]
ACAGTGAC	0.0585
CGGCTCAC	-0.109
CTAGCGGA	-0.2
AAGCGTGT	0.378
ATAATCCC	0.162
GCGCTAGC	-0.186
ACGCCGTC	-0.0777
ATTGCATC	-0.0449
CAAACCTC	-0.064
CTCCGAAG	0.0347
GGCTCGAC	0.111
TGAGTGAA	-0.174
CTTTCCGA	-0.122
ACAGTAGC	-0.21
GGCGTGAA	-0.0323
GACATAGA	-0.257
TCGTCGAA	-0.198
ACTTCACT	-0.137
GAGGTTTA	-0.00176
ACTCCATG	0.212
GCTCAACC	-0.159
ATCCACAA	0.0164
ACATCTTA	-0.193
CCGTGACA	0.307
CCGTGGAA	-0.0689

Sequence	binding signal [E-score]
AGAACGAA	-0.0925
ATGAACTG	-0.183
AGACCAGA	-0.143
CCGGTTAA	0.00562
ATCGACAA	-0.00117
GCATTCCA	-0.252
CCCGTACG	0.0642
GCCGCCAA	-0.207
GATTCACC	-0.0714
GCTAATTA	-0.167
AGTCTGAC	-0.0699
GATGAAAA	-0.0321
ATTATGGC	-0.104
ATTTGGTC	-0.277
CGTTGTCC	-0.0142
GAGCCAGA	-0.0981
CAACTCTA	-0.0282
TACCCACA	0.174
CCGACGAC	0.0876
AACTTGGC	-0.168
CGGTTATC	0.109
CGGTGCAA	0.259
AGTGGGGG	0.127
TCTGCGCA	-0.185
TACATCGA	0.0772

Sequence	binding signal [E-score]
ACTGCGAG	-0.00221
AGGTGTAG	0.473
ATACATTA	-0.032
ATTACGTG	0.198
ACTTCAGC	-0.207
CAGCCCCG	-0.104
ACCAACAC	0.41
TCATTGCA	-0.0589
CAATTGGC	-0.247
ATGTTTCG	-0.0972
ATTCGTGG	-0.126
CACAACTA	0.0334
GATGAATC	-0.205
AGAATCTC	-0.0592
ACGAAAGA	-0.25
CTAGGATA	0.123
AATTGTGC	0.0205
ATTAATAG	-0.0707
GATGCGCA	-0.0997
AACCAGAT	-0.00298
GAACGCTC	-0.283
AGCCCAAC	-0.0323
AAGATCCT	-0.0376
AAGCCAAG	-0.135
CATGCGGG	-0.0566

Sequence	binding signal [E-score]
CCTGACCA	-0.0116
ATGCGACA	0.198
AGTATCAG	0.266
GGGTTACC	0.0986
AGAATACC	0.101
GATTCGGA	-0.133
AATACCTA	-0.0986
AGCTTTCC	-0.162
AGTAGCGC	-0.0475
TATCCCAA	0.0763
CCGTTCGC	-0.0712
CCCCTACG	0.181
GTACCTCA	0.125
ACGGTGTA	0.469
TCTGCAAA	-0.179
CGCGACCG	-0.0755
ACCAGCGA	0.051
ACATCGAC	-0.0512
CTAGATAA	-0.0825
GTAGTCGA	-0.122
CAACTCCG	0.125
CATAAAGG	-0.00347
GAAGATTC	-0.287
GAATGGAC	-0.1
TTACCCAA	0.0536

Sequence	binding signal [E-score]
AGACCGAC	-0.0247
CAGTACGA	-0.249
ACCTTTAG	0.0227
GAAAAAAA	-0.11
GCTTGCAA	-0.264
AGTCGCGC	-0.213
CTCCAGAG	-0.0703
AGACATCT	-0.211
AACCGATG	-0.257
GATATAAA	-0.124
CACCAAGC	0.26
ATAGCGGA	-0.162
AGAGAAAC	0.0252
ATGTCAGG	-0.146
AATGCAAG	-0.0694
ATTGTTCA	-0.12
ACTCTACT	0.108
CCACATCG	0.016
CTCGTGAA	-0.125
AAACGATT	-0.164
ATATCCGC	0.00412
CATTAGTA	0.00877
GAAACAAC	-0.0101
AAACGGCG	-0.116
CAGTCAGG	-0.0544

Sequence	binding signal [E-score]
CAAACCCG	-0.0675
GTCGGCCA	-0.0402
GAGGAAGC	-0.205
GCCTTGAC	-0.0969
ATTTGTTG	0.00624
AGTCGTTA	-0.112
AATTAAAT	-0.247
AAATGCGA	-0.064
CCGGGGCG	0.0986
AGGCGCCG	0.00941
GATAGTGC	0.0101
ACGACCAT	-0.137
CGCTCCTC	-0.0867
CCTAAGCC	-0.0982
AAACAGTT	-0.264
TCGTAGCA	-0.0231
CAGTCAAC	-0.0652
CACAGCCA	0.0567
AGAGGGGC	-0.113
ACACGCAA	0.395
ACTAATAG	-0.05
GCTCCAAC	-0.215
GCAGGGGC	-0.119
AACAAGAT	-0.0301
ACAATATA	-0.0578

Sequence	binding signal [E-score]
ACTATACA	0.238
AAACTATA	-0.058
ATGAGAAT	-0.0487
ACGGGGTA	0.233
ATTGGTGG	-0.111
GCGCGCTA	-0.016
ATGCGCCC	-0.0422
CGGAAGAG	-0.0407
AGTGGTAA	-0.269
GGATAGTA	0.121
CCGAAGAA	-0.0497
ACGAGCGG	0.116
AAGTTACA	0.171
AAAGACTG	-0.156
ACAGGGGG	0.0825
CGCCTGAG	-0.128
ACACACGA	0.251
CCCGCTCC	0.0597
CCAGGAGG	-0.113
AAATAGAT	-0.146
TGGTAACA	0.0425
AGATCGAA	-0.31
AAGGCAAA	-0.0842
CTCCCCAC	-0.00611
CATATTCC	-0.192

Sequence	binding signal [E-score]
AACCACAT	-0.0467
CAACACCA	0.474
CCACCCGC	0.146
ACTAGGAG	0.219
CTAGCCGC	-0.162
CAAAGAAG	-0.068
GCGGGTAA	0.164
GTAACGCA	-0.0317
ATACTATG	-0.0326
GAGTAGAA	0.0107
GGTCGCCA	-0.217
CCGCGTCA	0.156
AACGTTGG	-0.118
GTACTCCA	0.178
GCATACAA	-0.0449
ATCAAGTG	0.151
ACCATTTC	-0.049
AATGAGGG	0.0404
ACACCCAG	0.46
CTGTTTTC	-0.193
ATTGCTAA	-0.211
CCAAGGAG	-0.0441
GCTAAGAC	-0.0312
ATCCTATA	-0.137
AGAGCTCC	-0.206

Sequence	binding signal [E-score]
ACGGGTAT	0.277
CTGAGAGA	0.108
GGACAACC	-0.146
ACCTGGCT	-0.0981
AGAAAGAG	0.108
CACCGGGC	0.262
CGCGGAAG	-0.112
CACTACGA	0.191
GGAGAGAC	-0.106
ACACTAGG	0.381
ATGGAGAC	0.174
GAACCTCA	-0.124
AACCATGA	0.00619
CCTTGCGA	0.0371
CAACCTCC	-0.109
CTGGTCGA	-0.16
ACATACGT	-0.172
AGTACGTC	-0.0402
ATGGAGTG	0.274
TAGAACAA	-0.128
GCGTGTGA	0.347
ACTTGTAC	0.129
CAACAATA	-0.111
CATCTAGG	-0.1
AAGGTCCA	-0.247

Sequence	binding signal [E-score]
AAGCATTG	-0.076
CGATCCCC	0.303
GGGTGAAC	0.0894
TCAAACGA	-0.214
CCGGACGA	0.185
AACCCCAC	0.222
CAATCAGC	-0.128
GGTTCCAA	-0.0165
ACCATGAA	0.162
CAGACGAG	-0.16
AGTACTCA	-0.142
CCAAACGA	0.00661
AATCTTTC	-0.17
ATGCGCGG	-0.0645
CCTCACAA	0.0782
GCGTCGCA	0.0692
AACGGCGG	0.0531
GAGCTGAA	-0.246
CTTGTCCC	-0.272

Reference: article PMC10668032
